Results: the supplement of paper PMC4967469

Assays:
Experiment in all cases: Viability of human cancer cell lines after 72 h of drug (GDSC screen)
[1] = compound: COCC[n+]1c2c(n(Cc3cnccn3)c1C)C(=O)c1ccccc1C2=O [YM155]; conditions: top dose 5.12 µM
Experimental: (§1)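 Human cancer cell lines in 384-well plates, medium with 10% serum, drug for 72 h over a 256-fold dose range (nine 2-fold or five 4-fold steps up to the top dose). Adherent lines were fixed and stained with the nucleic acid dye Syto60, suspension lines read with resazurin; signal relative to control wells, capped at 0 and 100%. One two-parameter sigmoid per drug and line, fitted in a mixed model over all curves with the slope shared within a line.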

[2] = compound: c1ccc2c(CCNc3ccc(Nc4ccncc4)cc3)c[nH]c2c1 [JNJ-26854165]; conditions: top dose 10 µM
Experimental: as §1

[3] = compound: Cc1ccc(C(=O)N(CCCN)[C@@H](c2nc3cc(Cl)ccc3c(=O)n2Cc2ccccc2)C(C)C)cc1 [SB-715992]; conditions: top dose 0.128 µM; top dose inferred
Experimental: as §1

[4] = compound: OCCCNc1cc(-c2ccnc(Nc3cccc(Cl)c3)n2)ccn1 [CGP-60474]; conditions: top dose 0.256 µM; top dose inferred
Experimental: as §1

[5] = compound: C[C@]1(O)C[C@@H](c2nc(-c3ccc4ccc(-c5ccccc5)nc4c3)c3c(N)nccn32)C1 [OSI-906]; conditions: top dose 2.56 µM; top dose inferred
Experimental: as §1

[6] = compound: Cc1sc2c(c1C)C(c1ccc(Cl)cc1)=N[C@@H](CC(=O)OC(C)(C)C)c1nnc(C)n1-2 [JQ1]
Experimental: as §1

[7] = compound: COC(=O)[C@H](CCSC)NC(=O)c1ccc(NC[C@@H](N)CS)cc1-c1ccccc1 [FTI-277]; conditions: top dose 1.024 µM; top dose inferred
Experimental: as §1

[8] = compound: COc1cc(N2CCC(N3CCN(C)CC3)CC2)ccc1Nc1ncc(Cl)c(Nc2ccccc2S(=O)(=O)C(C)C)n1 [NVP-TAE684]; conditions: top dose 2 µM
Experimental: as §1

[9] = compound: O=C(/C=C/c1cccc(S(=O)(=O)Nc2ccccc2)c1)NO [Belinostat]; conditions: top dose 20 µM; top dose inferred
Experimental: as §1

[10] = compound: CN1CCN(c2ccc([N+](=O)[O-])c3no[n+]([O-])c23)CC1 [NSC-207895]; conditions: top dose 20 µM; top dose inferred
Experimental: as §1

[11] = compound: CC1=C2C[C@H]3[C@@H](CC=C4C[C@@H](O)CC[C@@]43C)[C@@H]2CC[C@]12O[C@@H]1C[C@H](C)CN[C@H]1[C@H]2C [Cyclopamine]; conditions: top dose 16 µM; top dose inferred
Experimental: as §1

[12] = compound: CCOc1nc(NC(=O)Cc2cc(OC)ccc2OC)cc(N)c1C#N [JNK Inhibitor VIII]; conditions: top dose 10 µM; top dose inferred
Experimental: as §1

[13] = compound: CC(=O)O[C@@]12CO[C@@H]1C[C@H](O)[C@@]1(C)C(=O)[C@H](O)C3=C(C)[C@@H](OC(=O)[C@H](O)[C@@H](NC(=O)OC(C)(C)C)c4ccccc4)C[C@@](O)([C@@H](OC(=O)c4ccccc4)[C@H]21)C3(C)C [Docetaxel]; conditions: top dose 0.0125 µM
Experimental: as §1

[14] = compound: CC1(C)CNc2cc(NC(=O)c3cccnc3NCc3ccncc3)ccc21 [AMG-706]; conditions: top dose 2 µM; top dose inferred
Experimental: as §1

[15] = top dose 1 µM, screen: GDSC drug entry 1218, top dose inferred
[16] = top dose 2.56 µM, screen: GDSC drug entry 163

Cell Line	AUC [1]	IC50 [1] [µM]	AUC [2]	IC50 [2] [µM]	AUC [3]	IC50 [3] [µM]	AUC [4]	IC50 [4] [µM]	AUC [5]	IC50 [5] [µM]	AUC [6, 15]	IC50 [6, 15] [µM]	AUC [6, 16]	IC50 [6, 16] [µM]	AUC [7]	IC50 [7] [µM]	AUC [8]	IC50 [8] [µM]	AUC [9]	IC50 [9] [µM]	AUC [10]	IC50 [10] [µM]	AUC [11]	IC50 [11] [µM]	AUC [12]	IC50 [12] [µM]	AUC [13]	IC50 [13] [µM]	AUC [14]	IC50 [14] [µM]
TGBC24TKB (biliary tract, adherent)	0.733	1.4	0.887	9.92	0.926	> 0.128	0.906	> 0.256	0.788	1.04	0.986	> 1	0.574	0.251	0.988	> 1.02	0.683	0.392	0.468	1.03	0.981	> 20	–	–	–	–	–	–	–	–
TGW (neuroblastoma, adherent)	0.18	0.0424	0.931	> 10	0.672	0.0223	0.757	–	0.881	2.03	0.981	> 1	0.833	1.33	0.991	> 1.02	–	–	0.202	0.195	0.883	16.2	0.989	> 16	0.99	> 10	0.964	> 0.0125	0.989	> 2
U-698-M (B-cell leukaemia, suspension)	0.104	< 0.02	0.87	9.33	0.944	> 0.128	0.933	> 0.256	0.965	> 2.56	0.982	> 1	0.942	> 2.56	0.983	> 1.02	–	–	0.546	1.66	0.985	> 20	0.96	> 16	0.987	> 10	0.819	0.00714	0.985	> 2
UACC-257 (melanoma, adherent)	0.037	< 0.02	0.808	6.76	0.947	> 0.128	0.85	> 0.256	0.97	> 2.56	0.962	> 1	0.807	1.72	0.944	> 1.02	–	–	0.448	0.868	0.793	11.8	0.977	> 16	0.967	> 10	0.856	> 0.0125	0.968	> 2
WIL2-NS (lymphoid neoplasm, suspension)	0.014	< 0.02	0.984	> 10	0.62	0.016	0.682	0.0462	0.992	> 2.56	0.985	> 1	0.553	0.217	0.992	> 1.02	–	–	0.033	< 0.0781	0.929	> 20	0.805	6.35	0.992	> 10	0.933	> 0.0125	0.992	> 2
WSU-DLCL2 (B-cell lymphoma, suspension)	0.253	0.0733	0.95	> 10	0.848	0.0717	0.898	0.225	0.992	> 2.56	0.752	0.283	0.992	> 2.56	0.992	> 1.02	–	–	0.725	4.77	0.993	> 20	0.993	> 16	0.989	> 10	0.793	0.00467	0.993	> 2
YT (lymphoid neoplasm, suspension)	0.038	< 0.02	0.948	> 10	0.958	> 0.128	0.976	> 0.256	0.982	> 2.56	0.991	> 1	0.551	0.215	0.944	> 1.02	–	–	0.095	0.0786	0.809	8.59	0.992	> 16	0.965	> 10	0.979	> 0.0125	0.969	> 2
no-11 (glioma, adherent)	0.039	< 0.02	0.951	> 10	0.93	> 0.128	0.586	–	0.938	> 2.56	0.98	> 1	0.628	0.394	0.941	> 1.02	–	–	0.76	8.78	0.947	> 20	0.896	> 16	0.968	> 10	0.83	0.0107	0.965	> 2

Lines with a small IC50 respond at low doses; where the fit passes the top or lowest dose, that dose stands as a limit. AUC sums up the same curve from the lowest dose to the 256-fold higher top dose; it is 1 without any effect and falls as sensitivity rises. For part of these data: The top dose, if marked as inferred, is not printed in the source and was worked back from the curve model. For part of these data: Drugs with an entry number were screened twice under separate entries, and the two screens often disagree.
